# Laboratory results published in patent US12286632B2, “Rationally-designed synthetic peptide shuttle agents for delivering polypeptide cargos from an extracellular space to the cytosol and/or nucleus of a target eukaryotic cell, uses thereof, methods and kits relating to same” (Feldan Bio Inc., priority 2016, dated 2025).
# Where “and” joins values, the source holds several entries; their conditions need not be identical. Equal values may be shown once. Read-outs that look alike come from different tables or passages of the source. Part of at least one peptide drawing is inferred or uncertain, most often the ends. Some entries share one result that the patent states for a list of compounds. Ends that are not written are not given here.
# How the values were obtained:
# HeLa cells [1] = assay: GFP-NLS protein transduction assay (flow cytometry: Pos cells %, viability %, relative fluorescence intensity; microscopy); conditions: GFP-NLS 5 μM, HeLa; for FIG. 13A Mean (%) (n = 3): Table 5.1; for FIG. 21A Mean (%) cell with GFP signal (n = 3): Table 8.1
# HeLa cells [2] = assay type: cell-based; conditions: for Mean counts (calcein fluorescence): calcein 100 μM
# Text: Calcein is a membrane-impermeable fluorescent molecule that is readily internalized by cells when administered to the extracellular medium. Its fluorescence is […] and calcein self-quenches at higher concentrations. Once internalized, calcein becomes sequestered at high concentrations in cell endosomes and can be visualized by fluorescence microscopy as a punctate pattern. Following endosomal leakage, calcein is released to the cell cytoplasm and this release can be visualized by fluorescence microscopy as a diffuse pattern.
# The cells were allowed to attach by incubating overnight in appropriate growth media, as described in Example 1. The next day, the media in wells was removed and replaced with 50 μL of fresh media without serum containing 62.5 μg/mL (100 μM) of calcein, except for HEK293A (250 μg/mL, 400 μM). At the same time, the shuttle agent(s) to be tested was added at a predetermined concentration. The plate was incubated at 37° C. for 30 minutes. The cells were washed with 1× PBS (37° C.) and fresh media containing 5-10% serum was added. The plate was incubated at 37° C. for 2.5 hours. The cells were washed with 1× PBS and detached using trypsinization.
# Untreated calcein-loaded cells were used as a control to distinguish cells having a baseline of fluorescence due to endosomally-trapped calcein from cells having increased fluorescence due to release of calcein from endosomes. Fluorescence signal means (“mean counts”) were analyzed for endosomal escape quantification. In some cases, the “Mean Factor” was calculated, which corresponds to the fold-increase of the mean counts relative to control (untreated calcein-loaded cells). […] The cellular mortality was monitored with the percentage of cells in the total events scanned. When it became lower than the control, it was considered that the number of cellular debris was increasing due to toxicity and the assay was discarded.
# HEK293A cells [3] = assay: Calcein endosomal escape assay, quantification by flow cytometry (mean counts, Mean Factor); assay type: cell-based, Human; conditions: for Mean Factor: fold-increase relative to untreated calcein-loaded cells
# HEK293A cells [4] = assay: Calcein endosomal leakage visualization by fluorescence microscopy; assay type: cell-based, Human; conditions: 100 μM calcein + 5 μM shuttle agent; FIG. 1A
# HeLa cells [5] = assay: Plasmid DNA (pEGFP-C1) transfection by peptides (% cells with GFP signal, cell viability)
# HeLa cells [6] = assay: FITC-labeled anti-tubulin antibody transduction assay (flow cytometry, cell viability, microscopy); conditions: 1 hour
# Procedure: The delivery and microscopy protocols are described in Example 3.
# HeLa cells were cultured and tested in the protein transduction assay described in Example 3.1. […] The cells were subjected to flow cytometry analysis as described in Example 3.3.
sequence,measurement,setting,value
KWKLFKKIGAVLKVLTTGYGRKKRRQRRRC [CM18-TAT-Cys],FIG. 13A Mean (%) (n = 3),"HeLa cells [1]; 1 hour, shuttle 3 μM",28.09%
same,FIG. 13A Mean (%) (n = 3),"HeLa cells [1]; 1 hour, shuttle 5 μM",32.26%
same,Mean (%) (n = 3),"HeLa cells [1]; Table 5.2/FIG. 14, 1 hour, shuttle 0.5 μM",7.64%
same,Mean (%) (n = 3),"HeLa cells [1]; Table 5.3/FIG. 15, 1 hour, shuttle 1 μM",15.56%
same,Mean (%) (n = 3),"HeLa cells [1]; Table 5.4, shuttle 3.5 μM, DMEM, 5 min",20.45%
same,Mean (%) (n = 3),"HeLa cells [1]; Table 5.4, shuttle 3.5 μM, DMEM, 1 h",20.69%
same,Mean (%) (n = 3),"HeLa cells [1]; Table 5.4, shuttle 3.5 μM, FBS (DMEM + 10% FBS), 1 h",13.20%
same,Mean (%) (n = 3),"HeLa cells [1]; Table 5.4, shuttle 3.5 μM, FBS, 5 min",10.83%
same,FIG. 21A Mean (%) cell with GFP signal (n = 3),"HeLa cells [1]; 1 hour, shuttle 1 μM",8.64%
same,FIG. 21A Mean (%) cell with GFP signal (n = 3),"HeLa cells [1]; 1 hour, shuttle 3 μM",15.66%
same,FIG. 21A Mean (%) cell with GFP signal (n = 3),"HeLa cells [1]; 1 hour, shuttle 5 μM",20.54%
same,peptide concentrations associated with an increase in cell toxicity,"HeLa cells [2]; HeLa cells, in some cases",above 10 μM
same,Mean counts (calcein fluorescence),HeLa cells [2]; peptide 1 μM,86 919
same,Mean Factor,"HeLa cells [2]; peptide 1 μM, fold-increase of mean counts relative to untreated calcein-loaded cells",1.4
same,Mean counts (calcein fluorescence),HeLa cells [2]; peptide 2 μM,137 887
same,Mean Factor,"HeLa cells [2]; peptide 2 μM, fold-increase relative to untreated calcein-loaded cells",2.2
same,Mean counts (calcein fluorescence),HeLa cells [2]; peptide 3 μM,174 327 and 170 652
same,Mean Factor,"HeLa cells [2]; peptide 3 μM, fold-increase relative to untreated calcein-loaded cells",2.7 and 2.1
same,Mean counts (calcein fluorescence),HeLa cells [2]; peptide 4 μM,251 799 and 128 461 and 159 042
same,Mean counts (calcein fluorescence),"HeLa cells [2]; peptide 4 μM, listed as CMI8-TAT-Cys",290 548
same,Mean Factor,"HeLa cells [2]; peptide 4 μM, fold-increase relative to untreated calcein-loaded cells",3.1 and 2.1 and 2.8
same,Mean Factor,"HeLa cells [2]; peptide 4 μM, fold-increase relative to untreated calcein-loaded cells, listed as CMI8-TAT-Cys",4.5
same,Mean counts (calcein fluorescence),HeLa cells [2]; peptide 5 μM,306 572 and 335 324 and 187 180
same,Mean counts (calcein fluorescence),"HeLa cells [2]; peptide 5 μM, listed as CMI8-TAT-Cys",383 685
same,Mean Factor,"HeLa cells [2]; peptide 5 μM, fold-increase relative to untreated calcein-loaded cells",5.7 and 4.1 and 3.0
same,Mean Factor,"HeLa cells [2]; peptide 5 μM, fold-increase relative to untreated calcein-loaded cells, listed as CMI8-TAT-Cys",6.0
same,Mean counts (calcein fluorescence),HeLa cells [2]; peptide 8 μM,321 873
same,Mean Factor,"HeLa cells [2]; peptide 8 μM, fold-increase relative to untreated calcein-loaded cells",5.1
same,Mean counts (calcein fluorescence),HEK293A cells [3]; peptide 0.5 μM,196 182
same,Mean Factor,HEK293A cells [3]; peptide 0.5 μM,1.2
same,Mean counts (calcein fluorescence),HEK293A cells [3]; peptide 5 μM,629 783
same,Mean Factor,HEK293A cells [3]; peptide 5 μM,3.8
same,calcein fluorescence pattern (microscopy),HEK293A cells [4],"higher intensity, more diffuse fluorescence pattern in a greater proportion of cells"
same,Mean % cells with GFP signal (±St. Dev.; n = 3),"HeLa cells [5]; DNA transfection in HeLa cells using peptides, pEGFP-C1 plasmid",0.08 ± 0.01%
same,DNA plasmid transfection efficiency (cells with GFP signal),"HeLa cells [5]; pEGFP-C1, Table 7.2",0.08%
same,FIG. 19A Mean (%) (n = 3),"HeLa cells [6]; FITC-labeled anti-tubulin antibody 0.5 μM, HeLa, shuttle 3.5 μM",36.56%
same,"antibody intracellular delivery (flow cytometry, in words)","HeLa cells [6]; antibody 0.5 μM, shuttle 3.5 μM",facilitate intracellular delivery of an FITC-labeled anti-tubulin antibody
same,functional antibody delivery (microscopy),"HeLa cells [6]; antibody 0.5 μM, shuttle 5 μM",fluorescent tubulin fibers in the cytoplasm were visualized
